In all, about 110,000 compounds went through this assay and about 230 (0.21%) showed an effect of 50% or more. This is one part of the list.
Target: DPAP1 (Plasmodium falciparum, UniProt Q8IIJ9)
Experiment: primary screen, percent inhibition; read by cleavage of a fluorogenic dipeptide substrate; higher = more effect of the substance
Parameters: species or system P. falciparum D10 trophozoite lysates; single well
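Also: 30 min substrate incubation versus DMSO and 10 µM JCP410 controls.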

Chain of DPAP1 (Q8IIJ9 whole entry, looked up): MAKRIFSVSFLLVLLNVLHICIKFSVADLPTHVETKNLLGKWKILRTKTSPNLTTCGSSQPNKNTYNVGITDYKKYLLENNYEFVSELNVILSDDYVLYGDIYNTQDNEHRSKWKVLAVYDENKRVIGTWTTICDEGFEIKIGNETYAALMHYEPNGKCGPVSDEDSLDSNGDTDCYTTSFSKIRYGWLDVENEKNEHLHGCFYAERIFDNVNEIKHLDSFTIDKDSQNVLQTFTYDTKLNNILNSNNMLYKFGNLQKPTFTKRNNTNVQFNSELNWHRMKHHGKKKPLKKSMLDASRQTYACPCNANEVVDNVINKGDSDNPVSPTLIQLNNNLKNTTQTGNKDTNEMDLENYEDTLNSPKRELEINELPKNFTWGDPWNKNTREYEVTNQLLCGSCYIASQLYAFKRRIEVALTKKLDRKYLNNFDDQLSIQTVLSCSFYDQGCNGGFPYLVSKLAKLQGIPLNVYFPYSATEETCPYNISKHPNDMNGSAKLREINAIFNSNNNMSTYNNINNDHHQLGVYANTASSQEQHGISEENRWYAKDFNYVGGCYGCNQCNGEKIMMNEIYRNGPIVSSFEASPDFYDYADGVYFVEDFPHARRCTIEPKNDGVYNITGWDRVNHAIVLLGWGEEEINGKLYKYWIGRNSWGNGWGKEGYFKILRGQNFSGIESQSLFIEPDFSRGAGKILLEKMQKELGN

SMILES	% Inhibition @ 10 uM
CCOC(=O)c1cnc(SCc2cccc(Oc3ccccc3)c2)nc1N	-3.02%
COc1ccc(CCNC(=O)C2c3ccccc3C(=O)N2Cc2ccc(F)cc2Cl)cc1OC (stereo not drawn)	5.23%
CCCc1c(C(=O)OCC)[nH]c2c1C(=O)CC(C)(C)C2	-1.92%
COc1cccc2c1OC(c1ccccc1Cl)N1N=C(c3ccco3)CC21 (stereo not drawn)	3.47%
CCC(C)NC(=O)c1c(C)[nH]c(C(C)=O)c1C (stereo not drawn)	-0.0652%
N#Cc1c(N)n(-c2cc(Cl)cc(Cl)c2)c2nc3ccccc3nc12	1.96%
O=C(Nc1ccccc1C(=O)O)c1ccc(NC(=O)C2CC2)cc1	-0.553%
O=C(Nc1cnn(C23CC4CC(CC(C4)C2)C3)c1)c1cc(-c2ccc(F)cc2)no1	4.07%
CCCOC(=O)C1=C(C)NC(=O)NC1c1ccc(F)cc1 (stereo not drawn)	-0.0505%
COc1ccc(-c2nc3c4cnn(C)c4ncn3n2)cc1	-4.64%
Cc1cc(C)cc(NC(=O)c2ccc(Br)s2)c1	7.97%
O=C(/C=C/c1ccco1)NC1=NCCS1	0.238%
COc1cc(C2C(C#N)=C(N)Oc3[nH]nc(C)c32)cc(Br)c1OCc1ccc(F)cc1 (stereo not drawn)	-1.64%
CC1(C)OC(=O)N(Cc2cccnc2)C1(C)O (stereo not drawn)	1.76%
C/C=C/C(=O)Nc1ccc(OC)cc1	0.912%
CC(NC(=O)CN1N=C(c2ccccc2)CCC1=O)c1ccccc1 (stereo not drawn)	0.514%
N#CC1=C(N)Oc2[nH]nc(-c3cccs3)c2C1c1cccc(F)c1 (stereo not drawn)	3.05%
CCOC(=O)c1c(C)oc2c1cc(NS(=O)(=O)c1ccc(Cl)cc1)c1ccccc12	-2.63%
COc1ccccc1NC(=O)COc1cc(Br)c(/C=C2\SC(N)=NC2=O)cc1OC	-5.32%
Cc1ccc(N(C)C(=O)N2CCN(S(=O)(=O)c3c(C)cc(C)cc3C)CC2)cc1	0.145%
O=C1OCCN/C1=C\C(=O)c1ccccc1	-0.807%
CC(=O)Nc1ccc(S(=O)(=O)NCc2cccs2)cc1	2.93%
CCOC(=O)c1[nH]c2c(OC)cc(OC)cc2c1CCN1C(=O)c2ccccc2C1=O	-7.67%
CCOc1ccc(-c2nnc(NC(=O)c3ccco3)s2)cc1	-2.6%
Cc1cc(Br)ccc1S(=O)(=O)N1CCCCC1	0.565%
CC1CCN(C2CCN(Cc3ccccc3F)CC2)CC1	3.54%

SMILES	% Inhibition @ 10 uM
CCOC(=O)c1[nH]c2c(c1Cc1ccccc1OC)C(=O)CC(C)(C)C2	4.07%
COc1ccc(C(=O)Nc2cccc3c2CCCC3)cc1	4.22%
CCOc1cccc(C2SCC(C(=O)O)N2C(C)=O)c1O (stereo not drawn)	1.79%
Cc1ccc(NC(=O)c2cccs2)cc1Cl	-0.856%
CCN1CCN(c2cc(C)c3ccc(Cl)cc3n2)CC1	-1.85%
Cc1ccc(CCNC(=O)C(C)n2nc(C)c3c(C)n(-c4ccccc4)nc3c2=O)cc1 (stereo not drawn)	0.227%
O=C1N=C(N2CCOCC2)SC1=C1CCCC1	-1.33%
Cc1cccc(OCC(=O)Nc2cc(-c3nc4ncccc4o3)ccc2Cl)c1	4.83%
CCCc1cc(C(=O)N2N=C(C(F)F)CC2(O)C(F)F)c2ccccc2n1 (stereo not drawn)	-1.36%
COc1ccc(C(=O)Nc2cccnc2)cc1S(=O)(=O)N1CCOCC1	-6.04%
C=CCSc1nc(O)c2c(n1)NC(=O)CC2c1cccc(F)c1F (stereo not drawn)	-2.88%
CN1CCN(C(=O)NCC2CC(=O)N(Cc3ccccc3)C2)CC1 (stereo not drawn)	-0.318%
Nc1cc(C(=O)O)c(N)cc1C(=O)O	3.32%
O=C(O)c1ccc2c(c1)C(=O)N(c1ccccc1O)C2=O	-1.29%
Cc1ccc(S(=O)(=O)N2CCCCCC2)cc1C(=O)NC1CCCCC1	-6.3%
CC(C)C[C@H](NC(=O)c1ccc([N+](=O)[O-])cc1)C(=O)NCC#N	-1.41%
COc1cc(C2NC(=O)CS2)cc(OC)c1OC (stereo not drawn)	0.774%
COCCCNC1CCC(C(C)(C)C)CC1 (stereo not drawn)	-1.5%
C=CCN(C#N)c1nc(N(C)C)nc(N(C)C)n1	-1.92%
CC(C)=CCCC(C)CN1CCN(C/C=C/c2ccccc2)CC1 (stereo not drawn)	-2.24%
CCS(=O)(=O)C1=NN2C(=N)/C(=C\c3ccc(OC)c(OC)c3)C(=O)N=C2S1	1.9%
Cn1c(=O)[nH]c(=O)c2c1ncn2CCNC1=NCCCCC1	-5.14%
Cc1cccc(OCC(=O)N2CCN(C(=O)c3ccccc3F)CC2)c1	1.84%
CCOc1ccc2nc(NC(=O)Nc3sc4nc5n(c(=O)c4c3C)CCC(C)CC5)sc2c1 (stereo not drawn)	0.0198%
COC(=O)C1=CN(C2CCCCC2)C=C(C(=O)OC)C1c1cccc(C)c1	-1.11%
